Results as given in the supplement of paper PMC8728848.
Some of the results follow.

Legend:
Test in all cases: glycan array binding signal (z-score within array); higher = stronger binding
Conditions in all cases: glycan notation: IUPAC condensed, linker removed
[1] = target: Fuc(a1-2)[Gal(a1-3)]Gal(b1-3)GlcNAc(b1-3)GalNAc
In short: (§1)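 The binding signal is a Z-score computed within each array. Data were drawn from 3228 arrays in the Consortium for Functional Glycomics database, restricted to those with a known protein sequence. Scores were averaged over arrays of the same protein sequence at different concentrations or buffers, and over linkers, and negative values can be taken as non-binding.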

[2] = target: Fuc(a1-2)[Gal(a1-3)]Gal(b1-3)GlcNAc(b1-6)GalNAc
In short: as §1

[3] = target: Fuc(a1-2)[Gal(a1-3)]Gal(b1-4)Glc
In short: as §1

[4] = target: Fuc(a1-2)[Gal(a1-3)]Gal(b1-4)GlcNAc
In short: as §1

[5] = target: Fuc(a1-2)[Gal(a1-3)]Gal(b1-4)GlcNAc(b1-2)Man
In short: as §1

[6] = target: Fuc(a1-2)[Gal(a1-3)]Gal(b1-4)GlcNAc(b1-2)Man(a1-3)[Fuc(a1-2)[Gal(a1-3)]Gal(b1-4)GlcNAc(b1-2)Man(a1-6)]Man(b1-4)GlcNAc(b1-4)GlcNAc
In short: as §1

[7] = target: Fuc(a1-2)[Gal(a1-3)]Gal(b1-4)GlcNAc(b1-2)Man(a1-3)[Fuc(a1-2)[Gal(a1-3)]Gal(b1-4)GlcNAc(b1-2)Man(a1-6)]Man(b1-4)GlcNAc(b1-4)[Fuc(a1-6)]GlcNAc
In short: as §1

[8] = target: Fuc(a1-2)[Gal(a1-3)]Gal(b1-4)GlcNAc(b1-3)GalNAc
In short: as §1

[9] = target: Fuc(a1-2)[Gal(a1-3)]Gal(b1-4)GlcNAc(b1-6)GalNAc
In short: as §1

[10] = target: Fuc(a1-2)[Gal(a1-3)]Gal(b1-4)[Fuc(a1-3)]Glc
In short: as §1

[11] = target: Fuc(a1-2)[Gal(a1-3)]Gal(b1-4)[Fuc(a1-3)]GlcNAc
In short: as §1

[12] = target: Fuc(a1-2)[Gal(a1-3)]Gal(b1-4)[Fuc(a1-3)]GlcNAc(b1-3)GalNAc
In short: as §1

[13] = target: Fuc(a1-2)[Gal(a1-4)]Gal(b1-4)GalNAc
In short: as §1

[14] = target: Fuc(a1-2)[Gal(a1-4)]Gal(b1-4)GlcNAc
In short: as §1

[15] = target: Fuc(a1-2)[GalNAc(a1-3)]Gal
In short: as §1

[16] = target: Fuc(a1-2)[GalNAc(a1-3)]Gal(b1-3)GalNAc(a1-3)[Fuc(a1-2)]Gal(b1-4)GlcNAc
In short: as §1

[17] = target: Fuc(a1-2)[GalNAc(a1-3)]Gal(b1-3)GalNAc(b1-3)Gal(a1-4)Gal(b1-4)Glc
In short: as §1

[18] = target: Fuc(a1-2)[GalNAc(a1-3)]Gal(b1-3)GlcNAc
In short: as §1

[19] = target: Fuc(a1-2)[GalNAc(a1-3)]Gal(b1-3)GlcNAc(b1-2)Man(a1-3)[Fuc(a1-2)[GalNAc(a1-3)]Gal(b1-3)GlcNAc(b1-2)Man(a1-6)]Man(b1-4)GlcNAc(b1-4)GlcNAc
In short: as §1

[20] = target: Fuc(a1-2)[GalNAc(a1-3)]Gal(b1-3)GlcNAc(b1-2)Man(a1-3)[Fuc(a1-2)[GalNAc(a1-3)]Gal(b1-3)GlcNAc(b1-2)Man(a1-6)]Man(b1-4)GlcNAc(b1-4)[Fuc(a1-6)]GlcNAc
In short: as §1

[21] = target: Fuc(a1-2)[GalNAc(a1-3)]Gal(b1-3)GlcNAc(b1-3)GalNAc
In short: as §1

[22] = target: Fuc(a1-2)[GalNAc(a1-3)]Gal(b1-3)GlcNAc(b1-6)GalNAc
In short: as §1

[23] = target: Fuc(a1-2)[GalNAc(a1-3)]Gal(b1-4)Glc
In short: as §1

[24] = target: Fuc(a1-2)[GalNAc(a1-3)]Gal(b1-4)GlcNAc
In short: as §1

[25] = target: Fuc(a1-2)[GalNAc(a1-3)]Gal(b1-4)GlcNAc(b1-2)Man
In short: as §1

[26] = target: Fuc(a1-2)[GalNAc(a1-3)]Gal(b1-4)GlcNAc(b1-2)Man(a1-3)[Fuc(a1-2)[GalNAc(a1-3)]Gal(b1-4)GlcNAc(b1-2)Man(a1-6)]Man(b1-4)GlcNAc(b1-4)GlcNAc
In short: as §1

[27] = target: Fuc(a1-2)[GalNAc(a1-3)]Gal(b1-4)GlcNAc(b1-2)Man(a1-3)[Fuc(a1-2)[GalNAc(a1-3)]Gal(b1-4)GlcNAc(b1-2)Man(a1-6)]Man(b1-4)GlcNAc(b1-4)[Fuc(a1-6)]GlcNAc
In short: as §1

[28] = target: Fuc(a1-2)[GalNAc(a1-3)]Gal(b1-4)GlcNAc(b1-3)Gal(b1-4)GlcNAc
In short: as §1

[29] = target: Fuc(a1-2)[GalNAc(a1-3)]Gal(b1-4)GlcNAc(b1-3)Gal(b1-4)GlcNAc(b1-3)Gal(b1-4)GlcNAc
In short: as §1

[30] = target: Fuc(a1-2)[GalNAc(a1-3)]Gal(b1-4)GlcNAc(b1-3)GalNAc
In short: as §1

[31] = target: Fuc(a1-2)[GalNAc(a1-3)]Gal(b1-4)GlcNAc(b1-3)[Fuc(a1-2)[GalNAc(a1-3)]Gal(b1-4)GlcNAc(b1-6)]GalNAc
In short: as §1

[32] = target: Fuc(a1-2)[GalNAc(a1-3)]Gal(b1-4)GlcNAc(b1-6)GalNAc
In short: as §1

[33] = target: Fuc(a1-2)[GalNAc(a1-3)]Gal(b1-4)[Fuc(a1-3)]GlcNAc
In short: as §1

[34] = target: Fuc(a1-2)[GalNAc(a1-3)]Gal(b1-4)[Fuc(a1-3)]GlcNAc(b1-3)GalNAc
In short: as §1

[35] = target: Fuc(a1-2)[GalNAc(a1-4)]Gal(b1-4)GlcNAc
In short: as §1

[36] = target: Fuc(a1-2)[GalNAc(b1-3)]Gal
In short: as §1

Fuc(a1-3)GlcNAc = target: Fuc(a1-3)GlcNAc
In short: as §1

[37] = target: Fuc(a1-3)[Gal(b1-4)]Glc6S
In short: as §1

[38] = target: Fuc(a1-3)[Gal(b1-4)]GlcNAc
In short: as §1

[39] = target: Fuc(a1-3)[Gal(b1-4)]GlcNAc(b1-2)Man
In short: as §1

[40] = target: Fuc(a1-3)[Gal(b1-4)]GlcNAc(b1-2)Man(a1-3)[Fuc(a1-3)[Gal(b1-4)]GlcNAc(b1-2)Man(a1-6)]Man(b1-4)GlcNAc(b1-4)GlcNAc
In short: as §1

[41] = target: Fuc(a1-3)[Gal(b1-4)]GlcNAc(b1-2)Man(a1-3)[Fuc(a1-3)[Gal(b1-4)]GlcNAc(b1-2)Man(a1-6)]Man(b1-4)GlcNAc(b1-4)[Fuc(a1-6)]GlcNAc
In short: as §1

[42] = target: Fuc(a1-3)[Gal(b1-4)]GlcNAc(b1-3)Gal(b1-3)[Fuc(a1-4)]GlcNAc
In short: as §1

[43] = target: Fuc(a1-3)[Gal(b1-4)]GlcNAc(b1-3)Gal(b1-4)[Fuc(a1-3)]GlcNAc
In short: as §1

[44] = target: Fuc(a1-3)[Gal(b1-4)]GlcNAc(b1-3)Gal(b1-4)[Fuc(a1-3)]GlcNAc(b1-3)Gal(b1-4)[Fuc(a1-3)]GlcNAc
In short: as §1

B1: AAA (Anguilla anguilla), Q7SIC1 (protein)
chain: VIPEGYTQENVAVRGKATQSAQLRGEHAANSEASNAIDGNRDSNFYHGSCTHSSGQANPWWRVDLLQVYTITSVTITNRGDCCGERISGAEINIGQHLASNGVNNPECSVIGSMATGETKTFHCPAPMIGRYVVTYLPTSESLHLCEVEVNVDKPAAA
- glycan array binding signal (z-score) [1]: -0.242
- glycan array binding signal (z-score) [2]: -0.176
- glycan array binding signal (z-score) [3]: -0.037
- glycan array binding signal (z-score) [4]: -0.106
- glycan array binding signal (z-score) [5]: -0.236
- glycan array binding signal (z-score) [6]: -0.141
- glycan array binding signal (z-score) [7]: -0.136
- glycan array binding signal (z-score) [8]: -0.244
- glycan array binding signal (z-score) [9]: -0.136
- glycan array binding signal (z-score) [10]: -0.099
- glycan array binding signal (z-score) [11]: -0.049
- glycan array binding signal (z-score) [12]: -0.092
- glycan array binding signal (z-score) [13]: -0.425
- glycan array binding signal (z-score) [14]: -0.162
- glycan array binding signal (z-score) [15]: -0.261
- glycan array binding signal (z-score) [16]: -0.243
- glycan array binding signal (z-score) [17]: -0.138
- glycan array binding signal (z-score) [18]: -0.186
- glycan array binding signal (z-score) [19]: -0.276
- glycan array binding signal (z-score) [20]: -0.322
- glycan array binding signal (z-score) [21]: -0.182
- glycan array binding signal (z-score) [22]: -0.208
- glycan array binding signal (z-score) [23]: 0.011
- glycan array binding signal (z-score) [24]: -0.12
- glycan array binding signal (z-score) [25]: -0.174
- glycan array binding signal (z-score) [26]: -0.115
- glycan array binding signal (z-score) [27]: -0.097
- glycan array binding signal (z-score) [28]: -0.217
- glycan array binding signal (z-score) [29]: 0.148
- glycan array binding signal (z-score) [30]: -0.153
- glycan array binding signal (z-score) [31]: -0.257
- glycan array binding signal (z-score) [32]: -0.205
- glycan array binding signal (z-score) [33]: -0.135
- glycan array binding signal (z-score) [34]: 0.131
- glycan array binding signal (z-score) [35]: 1.72
- glycan array binding signal (z-score) [36]: -0.145
- glycan array binding signal (z-score) (Fuc(a1-3)GlcNAc): 0.717
- glycan array binding signal (z-score) [37]: 0.075
- glycan array binding signal (z-score) [38]: -0.204
- glycan array binding signal (z-score) [39]: -0.184
- glycan array binding signal (z-score) [40]: -0.234
- glycan array binding signal (z-score) [41]: -0.07
- glycan array binding signal (z-score) [42]: 0.104
- glycan array binding signal (z-score) [43]: -0.21
- glycan array binding signal (z-score) [44]: 0.016
